Source: the supplement of paper PMC4967469
IC50 is the fitted dose that halves viability relative to control wells, and lower means more sensitive; where the fit passes the top or lowest dose, that dose stands as a limit. AUC sums up the same curve from the lowest dose to the 256-fold higher top dose; it is 1 without any effect and falls as sensitivity rises. For part of these data: Any top dose called inferred was calculated from the reported fits.

Tests used:
Test in all cases: Viability of human cancer cell lines after 72 h of drug (GDSC screen)
Lenalidomide = compound: Nc1cccc2c1CN(C1CCC(=O)NC1=O)C2=O [Lenalidomide]; conditions: top dose 5 µM; top dose inferred
Experimental: (§1)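 Human cancer cell lines in 384-well plates, medium with 10% serum, drug for 72 h over a 256-fold dose range (nine 2-fold or five 4-fold steps up to the top dose). Adherent lines were fixed and stained with the nucleic acid dye Syto60, suspension lines read with resazurin; signal relative to control wells, capped at 0 and 100%. One two-parameter sigmoid per drug and line, fitted in a mixed model over all curves with the slope shared within a line.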

GW-2580 = compound: COc1ccc(COc2ccc(Cc3cnc(N)nc3N)cc2OC)cc1 [GW-2580]; conditions: top dose 20 µM; top dose inferred
Experimental: as §1

Bryostatin 1 = compound: CCC/C=C/C=C/C(=O)O[C@H]1/C(=C/C(=O)OC)C[C@H]2C[C@H]([C@@H](C)O)OC(=O)C[C@H](O)C[C@@H]3C[C@H](OC(C)=O)C(C)(C)[C@](O)(C[C@@H]4C/C(=C/C(=O)OC)C[C@H](/C=C/C(C)(C)[C@]1(O)O2)O4)O3 [Bryostatin 1]; conditions: top dose 0.008 µM; top dose inferred
Experimental: as §1

SGC0946 = compound: CC(C)N(CCCNC(=O)Nc1ccc(C(C)(C)C)cc1)C[C@H]1O[C@@H](n2cc(Br)c3c(N)ncnc32)[C@H](O)[C@@H]1O [SGC0946]; conditions: top dose 0.5 µM; top dose inferred
Experimental: as §1

VX-680 = compound: Cc1cc(Nc2cc(N3CCN(C)CC3)nc(Sc3ccc(NC(=O)C4CC4)cc3)n2)n[nH]1 [VX-680]; conditions: top dose 2 µM
Experimental: as §1

Cell Line | AUC (Lenalidomide) | IC50 (Lenalidomide) [nM] | AUC (GW-2580) | IC50 (GW-2580) [nM] | AUC (Bryostatin 1) | IC50 (Bryostatin 1) [nM] | AUC (SGC0946) | IC50 (SGC0946) [nM] | AUC (VX-680) | IC50 (VX-680) [nM]
PSN1 (pancreas, adherent) | 0.982 | > 5000 | 0.977 | > 20000 | 0.946 | > 8 | 0.991 | > 500 | 0.492 | 119
LU-65 (large cell lung carcinoma, suspension) | 0.987 | > 5000 | 0.975 | > 20000 | 0.982 | > 8 | 0.975 | > 500 | 0.986 | > 2000
OMC-1 (cervix, adherent) | 0.988 | > 5000 | 0.97 | > 20000 | 0.956 | > 8 | 0.986 | > 500 | 0.988 | > 2000
KY821 (leukaemia, suspension) | 0.984 | > 5000 | 0.992 | > 20000 | 0.99 | > 8 | 0.991 | > 500 | 0.909 | > 2000
NCI-H524 (small cell lung carcinoma, suspension) | 0.989 | > 5000 | 0.986 | > 20000 | 0.991 | > 8 | 0.99 | > 500 | 0.559 | 178
NCI-H211 (small cell lung carcinoma, adherent) | 0.988 | > 5000 | 0.963 | > 20000 | 0.986 | > 8 | 0.979 | > 500 | 0.601 | 235
A4-Fuk (B-cell lymphoma, suspension) | 0.901 | > 5000 | 0.986 | > 20000 | 0.974 | > 8 | 0.984 | > 500 | 0.523 | 145
EB2 (Burkitt lymphoma, suspension) | 0.99 | > 5000 | 0.982 | > 20000 | 0.99 | > 8 | 0.989 | > 500 | 0.99 | > 2000
NB10 (neuroblastoma, adherent) | 0.984 | > 5000 | 0.966 | > 20000 | 0.988 | > 8 | 0.971 | > 500 | 0.986 | > 2000
OVCAR-4 (ovary, adherent) | 0.972 | > 5000 | 0.971 | > 20000 | 0.963 | > 8 | 0.972 | > 500 | 0.75 | 961
697 (lymphoblastic leukaemia, suspension) | 0.979 | > 5000 | 0.987 | > 20000 | 0.965 | > 8 | 0.987 | > 500 | 0.165 | 16.2
COR-L95 (small cell lung carcinoma, adherent) | 0.987 | > 5000 | 0.965 | > 20000 | 0.984 | > 8 | 0.985 | > 500 | 0.98 | > 2000
OCUB-M (breast, adherent) | 0.99 | > 5000 | 0.908 | > 20000 | 0.99 | > 8 | 0.989 | > 500 | 0.393 | 66.6
NCI-H1436 (small cell lung carcinoma, suspension) | 0.982 | > 5000 | 0.945 | > 20000 | 0.982 | > 8 | 0.942 | > 500 | 0.927 | > 2000
ES1 (Ewing sarcoma, adherent) | 0.972 | > 5000 | 0.982 | > 20000 | 0.973 | > 8 | 0.984 | > 500 | 0.883 | > 2000
KINGS-1 (glioma, adherent) | 0.972 | > 5000 | 0.978 | > 20000 | 0.977 | > 8 | 0.978 | > 500 | 0.95 | > 2000
ES5 (Ewing sarcoma, adherent) | 0.979 | > 5000 | 0.969 | > 20000 | 0.982 | > 8 | 0.981 | > 500 | 0.977 | > 2000
L-540 (Hodgkin lymphoma, suspension) | 0.977 | > 5000 | 0.99 | > 20000 | 0.989 | > 8 | 0.985 | > 500 | 0.935 | > 2000

Cell Line | AUC (Lenalidomide) | IC50 (Lenalidomide) [nM] | AUC (GW-2580) | IC50 (GW-2580) [nM] | AUC (Bryostatin 1) | IC50 (Bryostatin 1) [nM] | AUC (SGC0946) | IC50 (SGC0946) [nM] | AUC (VX-680) | IC50 (VX-680) [nM]
ES7 (Ewing sarcoma, adherent) | 0.984 | > 5000 | 0.979 | > 20000 | 0.983 | > 8 | 0.982 | > 500 | 0.981 | > 2000
NCI-H1876 (small cell lung carcinoma, adherent) | 0.987 | > 5000 | 0.977 | > 20000 | 0.982 | > 8 | 0.982 | > 500 | 0.78 | 836
SF539 (glioma, adherent) | 0.99 | > 5000 | 0.99 | > 20000 | 0.987 | > 8 | 0.989 | > 500 | 0.958 | > 2000
SK-ES-1 (Ewing sarcoma, semi-adherent) | 0.983 | > 5000 | 0.979 | > 20000 | 0.972 | > 8 | 0.983 | > 500 | 0.455 | 93.2
Farage (B-cell lymphoma, suspension) | 0.987 | > 5000 | 0.993 | > 20000 | 0.947 | > 8 | 0.982 | > 500 | 0.911 | 1950
MEG-01 (chronic myeloid leukaemia, suspension) | 0.988 | > 5000 | 0.987 | > 20000 | 0.981 | > 8 | 0.986 | > 500 | 0.636 | 289
GDM-1 (acute myeloid leukaemia, suspension) | 0.987 | > 5000 | 0.191 | 158 | 0.948 | > 8 | 0.986 | > 500 | 0.383 | 60.5
GR-ST (lymphoblastic leukaemia, suspension) | 0.959 | > 5000 | 0.97 | > 20000 | 0.979 | > 8 | 0.978 | > 500 | 0.941 | > 2000
NCI-H1395 (lung adenocarcinoma, adherent) | 0.98 | > 5000 | 0.936 | > 20000 | 0.982 | > 8 | 0.98 | > 500 | 0.977 | > 2000
ES8 (Ewing sarcoma, adherent) | 0.98 | > 5000 | 0.985 | > 20000 | 0.976 | > 8 | 0.986 | > 500 | 0.215 | 19.8
ARH-77 (myeloma, suspension) | 0.967 | > 5000 | 0.987 | > 20000 | 0.987 | > 8 | 0.983 | > 500 | 0.958 | > 2000
NAMALWA (Burkitt lymphoma, suspension) | 0.984 | > 5000 | 0.99 | > 20000 | 0.984 | > 8 | 0.991 | > 500 | 0.585 | 205
NCI-H1155 (large cell lung carcinoma, suspension) | 0.993 | > 5000 | 0.991 | > 20000 | 0.993 | > 8 | 0.993 | > 500 | 0.976 | > 2000
JM1 (B-cell lymphoma, suspension) | 0.963 | > 5000 | 0.991 | > 20000 | 0.984 | > 8 | 0.988 | > 500 | 0.765 | 635
MN-60 (B-cell leukaemia, suspension) | 0.968 | > 5000 | 0.982 | > 20000 | 0.982 | > 8 | 0.975 | > 500 | 0.986 | > 2000
BC-1 (B-cell lymphoma, suspension) | 0.985 | > 5000 | 0.931 | > 20000 | 0.991 | > 8 | 0.98 | > 500 | 0.967 | > 2000
GI-1 (glioma, adherent) | 0.987 | > 5000 | 0.986 | > 20000 | 0.931 | > 8 | 0.984 | > 500 | 0.918 | > 2000
NOMO-1 (acute myeloid leukaemia, suspension) | 0.961 | > 5000 | 0.982 | > 20000 | 0.982 | > 8 | 0.98 | > 500 | 0.83 | 1500
